The densities may have been worked out from excess volumes.
Experiment: xn = mol fraction of the nth substance listed
Settings: 101 kPa

CCCC[n+]1ccn(C)c1.N#C[S-] + CCCCCO
mass density [kg/m3]
Settings | 298.15 K | 308.15 K | 318.15 K | 328.15 K | 338.15 K | 348.15 K
x2 = 0 | 1069.8 | 1063.9 | 1058 | 1052.2 | – | 1040.7
x2 = 0.0193 | 1067.1 | – | 1055.4 | 1049.5 | 1043.7 | 1038
x2 = 0.1443 | 1048.5 | – | 1036.5 | 1030.6 | 1024.8 | 1019
x2 = 0.2751 | 1026 | 1019.9 | 1013.9 | 1007.9 | 1002 | –
x2 = 0.3843 | 1004.4 | 998.2 | 992.1 | 986 | – | –
x2 = 0.487 | 981.6 | 975.3 | 969.1 | 962.8 | 956.7 | 950.5
x2 = 0.5557 | 964.7 | 958.4 | – | 945.7 | 939.4 | 933.1
x2 = 0.616 | 948.7 | 942.2 | 935.8 | 929.4 | – | 916.6
x2 = 0.7302 | 915.1 | 908.4 | 901.8 | – | 888.4 | 881.7
x2 = 0.7914 | 895 | 888.2 | 881.4 | 874.6 | 867.7 | –
x2 = 0.856 | 871.8 | 864.8 | 857.8 | 850.8 | 843.7 | 836.5
x2 = 0.9135 | 849.3 | 842.2 | 835.1 | 827.8 | 820.5 | –

CCCCCCO + CCCC[n+]1ccn(C)c1.N#C[S-]
x1 = 1
Settings | mass density [kg/m3]
298.15 K | 814.9
318.15 K | 800.4
328.15 K | 792.9
348.15 K | 777.4

CCCC[n+]1ccn(C)c1.N#C[S-] + CCCCO
mass density [kg/m3]
Settings | 298.15 K | 308.15 K | 318.15 K | 328.15 K | 338.15 K | 348.15 K
x2 = 0 | 1069.8 | 1063.9 | 1058 | 1052.2 | 1046.4 | 1040.7
x2 = 0.0911 | 1058.5 | 1052.6 | – | 1040.8 | 1035 | 1029.2
x2 = 0.2242 | – | 1033.9 | 1027.9 | 1022 | 1016.1 | 1010.2
x2 = 0.3317 | 1022 | 1015.8 | 1009.7 | 1003.7 | 997.7 | –
x2 = 0.4552 | 997.7 | 991.4 | 985.2 | – | 972.8 | 966.7
x2 = 0.5596 | – | 967.1 | – | 954.4 | – | 941.7
x2 = 0.6222 | – | 950.5 | – | 937.5 | – | 924.6
x2 = 0.6834 | 939.2 | – | – | – | 912.6 | 905.9
x2 = 0.79 | – | 896.5 | 889.5 | 882.6 | 875.6 | 868.6
x2 = 0.8487 | 880.2 | 873.1 | 866 | 858.8 | 851.6 | 844.3
x2 = 0.8975 | 858.8 | 851.6 | 844.3 | 836.9 | 829.4 | –
x2 = 0.9738 | – | 813.3 | – | 797.8 | 789.8 | –

CCCCCO + CCCC[n+]1ccn(C)c1.N#C[S-]
x1 = 1
Settings | mass density [kg/m3]
308.15 K | 803.5
318.15 K | 796
328.15 K | 788.3
338.15 K | 780.4
348.15 K | 772.2

CCCCO + CCCC[n+]1ccn(C)c1.N#C[S-]
x1 = 1
Settings | mass density [kg/m3]
298.15 K | 805.8
308.15 K | 798.1
318.15 K | 790.2
338.15 K | 773.9

CCCC[n+]1ccn(C)c1.N#C[S-] + CCCCCCO
mass density [kg/m3]
Settings | 298.15 K | 308.15 K | 318.15 K | 328.15 K | 338.15 K | 348.15 K
x2 = 0 | 1069.8 | 1063.9 | 1058 | 1052.2 | 1046.4 | 1040.7
x2 = 0.0424 | 1063 | 1057.1 | 1051.2 | 1045.4 | – | –
x2 = 0.1505 | – | – | 1032.5 | 1026.6 | 1020.8 | 1015
x2 = 0.3093 | 1013.1 | 1007 | 1000.9 | 994.9 | – | 983.1
x2 = 0.453 | 981.2 | – | 968.8 | 962.7 | – | 950.4
x2 = 0.5773 | 950.4 | 944.1 | 937.7 | 931.4 | – | 918.7
x2 = 0.6307 | 936.2 | 929.7 | – | 916.9 | 910.4 | 904
x2 = 0.6962 | 917.7 | 911.2 | 904.6 | – | 891.5 | 884.9
x2 = 0.7583 | 899.2 | 892.5 | 885.9 | – | 872.4 | 865.7
x2 = 0.8512 | 869.5 | 862.7 | 855.8 | – | 841.9 | 834.9
x2 = 0.9102 | 849 | – | – | 828 | 820.8 | 813.4

Source: a compilation of properties of binary mixtures (doi:10.1007/s10953-009-9410-7)
